According to PubChem BioAssay AID493208 (National Center for Advancing Translational Sciences (NCATS), 2011):
The campaign covered roughly 44,000 compounds. About 340 (0.77%) were called active. Not shown: some 5% with an inconclusive outcome. Calls follow the shape of the dose curve; as a rule, active = well fitted inhibition curve with a large enough effect; inconclusive = small, poorly fitted or top-dose-only effect; inactive = flat fitted curve, though single readings scatter. The list shows a part of the results.

Experiment: Acumen qHTS Assay for Inhibitors of the mTORC1 Signaling Pathway in MEF (Tsc2-/-, p53-/-) Cells: Sytravon; also: nearly all actives have a fitted effect of over 50% in size;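 as to activity change, negative = inhibition: plate controls were DMSO for no effect and rapamycin for full effect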
Conditions: phospho-rpS6 immunofluorescence/PI, 24 h; series mostly up to 38.3 µM; activity change, negative = inhibition: at the top concentration
In short: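 Plate MEFs (Tsc2-/-, p53-/-, empty vector) in DMEM/10% FBS; after 24 h add compound, incubate 24 h at 37 degree Celsius; fix in PFA/TX-100, block, stain phospho-rpS6 and 10 uM PI; scan at 488 nm; report % positive cells.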
Potency is read from the fitted curve at half-maximal effect.

Compound	activity change, negative = inhibition	Potency
Cn1c(=O)c2ccccc2n2c(CCC(=O)N3CCN(c4cccc(Cl)c4)CC3)nnc12	inactive: 0.1%	
CCOc1ccc(NC(=O)CC2C(=O)N(c3cccc(OC)c3)C(=O)N2C2CCCCC2)cc1 (configuration not stated)	inactive: 1.41%	
COc1ccc2c(C)c(CC(=O)NCCc3ccccc3)c(=O)oc2c1OC	inactive: 2.63%	
COc1ccccc1C(=O)Nc1cc(-c2cccc(Br)c2)nn1-c1ccccc1	inactive: -21.5%	
Cc1cc(C)cc(N2C(=O)CC(c3ccc(C(F)(F)F)cc3)C3=C2COC3=O)c1 (configuration not stated)	inactive: -2.84%	
COc1ccc(Cl)cc1NC(=O)C(C)n1nnc2sc3c(c2c1=O)CCCC3 (configuration not stated)	inactive: 1.41%	
Cc1cccc(NC(=O)CSc2nc(-c3cccs3)cc(C(F)(F)F)c2C#N)c1	inactive: -3.27%	
CCN1CCN(c2csc3ccc(Cl)cc3c2=O)CC1	inactive: 3.48%	
CCCCn1c(Oc2cccc(C(=O)OC)c2)nc2c1c(=O)n(C)c(=O)n2C	inactive: -2.54%	
COc1ccc(Cn2c(SCC(=O)NCc3ccccc3)nc3ccccc32)cc1	inactive: 6.75%	
Cc1ccc(C(=O)NCC(=O)OCc2cc(=O)n3nc(C4CCCCC4)sc3n2)cc1	inactive: 1.93%	
CCOc1ccc(NC(=O)Cn2nnc(C(=O)OC)c2C(=O)OC)cc1	inactive: -5.38%	
COc1ccc(C(=O)NC2(C(F)(F)F)C(=O)NC(C)=C2C#N)cc1 (configuration not stated)	inactive: 0.309%	
Cc1ccc2c(c1)C(c1ccc(F)cc1)N(C(=O)C(C)C)CC(=O)N2 (configuration not stated)	inactive: 0%	
CCc1cccc(NC(=O)Cn2nc(CC)n3c(cc4cc(C)ccc43)c2=O)c1	inactive: -12.5%	
O=c1oc2ccc3ccccc3c2cc1-c1nnc(Nc2ccccc2)s1	inactive: -4.66%	
Cc1cc(S(=O)(=O)Nc2cccc(-c3ccc(N4CCOCC4)nn3)c2)c(C)cc1Cl	inactive: -7.08%	
COc1cccc(NC(=O)CSc2nc(O)c(C/C=C/c3ccccc3)c(=O)[nH]2)c1	inactive: 0.333%	
COc1ccc(N2CCN(S(=O)(=O)c3ccc(-c4cc(C(F)(F)F)on4)s3)CC2)cc1	inactive: -5.2%	
Cc1ccc(CCNC(=O)c2sc3ncccc3c2-n2cccc2)cc1	inactive: -6.41%	
COc1cc(NC(=O)c2nc3cc(C)c(C)cc3n(C)c2=O)cc(OC)c1OC	inactive: 2.26%	
CCC(=O)Nc1cc(C(=O)NCc2ccc(C)cc2)ccc1S(=O)(=O)c1ccc(C)cc1	inactive: -2.55%	
Cc1ccc(C)c(CN2C(=O)c3ccccc3Sc3ccc(C(=O)NCc4ccco4)cc32)c1	inactive: -0.269%	
Cc1cccc(OCc2ccc(-c3nc(C#N)c(N4CCN(c5ccccc5)CC4)o3)o2)c1	inactive: 3.14%	
Cc1cc(C)c2oc(C(=O)Nc3c(C(=O)c4ccc(F)cc4)oc4ccccc34)cc(=O)c2c1	inactive: -5.56%	

Compound	activity change, negative = inhibition	Potency
CCc1cccc(C)c1Nc1c(-c2ccc(N(C)C)cc2)nc2ncccn12		active: 13.1 µM
CC1CCC(NC(=O)C2(C)Cc3ccccc3C(=O)N2Cc2ccccc2Cl)CC1 (configuration not stated)	inactive: -2.5%	
CCN(CC)c1ccc(NC(=O)Cn2c(C)c3cnn(-c4ccccc4)c(=O)c3c2C)c(C)c1	inactive: 0.0309%	
Cc1cc(Cl)ccc1NC(=O)CCS(=O)(=O)c1cc2c(cc1C)NC(=O)CO2	inactive: 1.12%	
COC(=O)c1c(-c2cccs2)csc1NC(=O)c1cc(OC)cc(OC)c1	inactive: -1.24%	
O=C(NCCSc1c(-c2ccc(Br)cc2)[nH]c2ccccc12)c1ccc(S(=O)(=O)N2CCOCC2)cc1	inactive: -16.2%	
Cc1ccc(CNC(=O)C(CC(C)C)N2Cc3ccccc3C2=O)cc1 (configuration not stated)	inactive: 1.23%	
Clc1cccc(-n2ncc3c(NCCCc4ccccc4)ncnc32)c1	inactive: 6.63%	
Cc1cc(C)cc(NC(=O)C(Cc2ccccc2)N2Cc3ccccc3C2=O)c1 (configuration not stated)	inactive: -8.32%	
Cc1ccc(-n2c(=O)c3sccc3n(Cc3cc(=O)n4ccccc4n3)c2=O)cc1	inactive: -3.12%	
COc1ccc(C(=O)N2CCC(C(=O)Nc3ccc(OC)cc3OC)CC2)cc1	inactive: -5.33%	
CCN(C(=O)Cn1nc(Cc2cccnc2)c2ccccc2c1=O)c1cc(C)ccc1C	inactive: -21.5%	
Cc1ccccc1C(=O)Nc1nnc(S(=O)(=O)N2CCCc3ccccc32)s1	inactive: 1.08%	
O=C1C(c2ccc(C(F)(F)F)cc2)=C(Nc2ccc(Cl)cc2)c2ccccc21	inactive: -18.9%	
Cc1cccc(-c2cc(NC(=O)COc3ccccc3F)n(-c3ccccc3)n2)c1	inactive: -1.1%	
Cc1nnsc1C(=O)Oc1ccccc1Cl	inactive: 1.56%	
Cc1ccc(-c2cn3c4c(=O)n(C)c(=O)n(C)c4nc3n2-c2cccc(Cl)c2)cc1	inactive: -6.8%	
Cc1ccc(NC(=O)CSc2nnc(-c3cc4occc4n3C)n2-c2ccccc2C)cc1F	inactive: -3.44%	
CCn1c(C(=O)Nc2cc(C)cc(C)c2)cc2sc(Cl)cc21	inactive: -4.94%	
COc1ccc(C(=O)N=c2sc3cc(Cl)ccc3n2C)cc1	inactive: 7.08%	
CCN(CC)CCOC(=O)c1ccc(NC(=O)CCn2c(=O)oc3ccccc32)cc1	inactive: 0.816%	
N#Cc1ccccc1NC(=O)C(=O)NCC(c1cccnc1)N1CCc2ccccc2C1 (configuration not stated)	inactive: 7.97%	
CCCCN(C)c1ncnc2c1cnn2-c1cccc(Cl)c1	inactive: 10.4%	
CCC(=O)N1CCc2cc(S(=O)(=O)NCCC(=O)Nc3cccc(C)c3C)ccc21	inactive: 1.31%	
COc1cccc(CNc2ccc3c(c2)ncn3C)c1OC	inactive: 7.41%	

Compound	activity change, negative = inhibition	Potency
Cc1cc(SCC(=O)NCc2ccccc2)nc(=O)[nH]1	inactive: -12.3%	
CCOc1ccccc1NC(=O)C1CCCN(S(=O)(=O)c2ccc3c(c2)CCCN3C(C)=O)C1 (configuration not stated)	inactive: -10.9%	
COc1ccc(OC)c(CCNC(=O)C(C)n2nc(C)c3c(C)n(-c4ccc(C)cc4)nc3c2=O)c1 (configuration not stated)	inactive: -12.2%	
O=C(NCc1ccccc1Br)c1ccc(-n2cnc3cccnc32)cc1	inactive: -5.15%	
COc1ccc(N(CC(=O)Nc2ccc(Cl)cc2C)S(=O)(=O)c2ccccc2)c(OC)c1	inactive: -24.4%	
COc1cc(-c2nnc(SCC(=O)N3CCCc4ccccc43)o2)cc(OC)c1OC	inactive: -1.71%	
CCc1ccc(S(=O)(=O)c2nnn3c2nc(Nc2cccc(C)c2C)c2sccc23)cc1	inactive: -3.13%	
CCCN(C(=O)CCn1cnc2onc(-c3ccc(F)cc3)c2c1=O)c1ccccc1C	inactive: 3.21%	
Cc1ccc(Cl)cc1N1CCN(C(=O)Cn2nc(C)n3c(cc4sccc43)c2=O)CC1	inactive: -6.17%	
CCOC(=O)c1c(-c2ccccc2)csc1NC(=O)c1cc(-c2cccc(OC)c2)on1	inactive: 1.45%	
Cc1cc(C)cc(C(=O)Nc2c3c(nn2-c2ccccc2C)CS(=O)(=O)C3)c1	inactive: -0.924%	
O=C(Cn1nc2c(cc1=O)CCCC2)NCc1ccccc1Cl	inactive: 3.14%	
Cc1ccc(C(=O)Nc2nnc(SCc3cc(=O)n4ccc(C)cc4n3)s2)cc1	inactive: -11.3%	
Cc1cc(C)cc(NC(=O)Cn2nnc(C(=O)NCc3ccco3)c2N)c1	inactive: -1.46%	
O=C(CN1C(=O)COc2ccc(S(=O)(=O)N3CCCCCC3)cc21)N1CCN(c2ccccc2)CC1	inactive: -2.72%	
CCC(=O)N1c2nc(C(C)C)nn2C2(CCCCC2)[C@@H]2CCCC[C@@H]21	inactive: -4.67%	
CCOC(=O)c1cccc(NC(=O)C2CCN(c3nnc(C)c4c(C)n(-c5ccccc5)nc34)CC2)c1	inactive: -9.62%	
COCCNC(=O)Cn1c(=O)n(-c2ccc(C)c(C)c2)c(=O)c2c3c(sc21)CCCCC3	inactive: 1.25%	
COc1ccc(Cl)cc1NC(=O)C(C)N1Cc2ccccc2C1=O (configuration not stated)	inactive: -15.9%	
COc1ccc(NC(=O)CN2CCN(S(=O)(=O)c3ccc(Br)cc3)CC2)cc1	inactive: -18.2%	
COc1ccc(NCc2cccn2-c2nnc(N3CCOCC3)s2)c(OC)c1	inactive: 4.68%	
CCOc1cc(CNC(=O)C(NS(=O)(=O)c2cccs2)C(C)C)cc(OCC)c1OCC (configuration not stated)	inactive: 0%	
O=C(Cn1c(SCc2cccc(F)c2)nc2ccncc21)Nc1ccc(Cl)cc1F	inactive: -1.42%	
O=C(NNc1ncnc2c1cnn2-c1ccccc1)c1ccccc1	inactive: -2.12%	
Cc1cn2c(=O)cc(COc3cccc(NC(=O)c4cccc(F)c4)c3)nc2s1	inactive: -3.54%	

Compound	activity change, negative = inhibition	Potency
COc1ccc(C(=O)Nc2ccc3nc(N4CCCCC4)cc(C)c3c2)c(OC)c1	inactive: 2.88%	
COc1ccc(N2CCN(S(=O)(=O)CCNC(=O)Cc3ccc(-c4ccccc4)cc3)CC2)cc1	inactive: -6.1%	
CCCc1oc2ccc(NS(=O)(=O)c3ccc(OC)cc3)cc2c1C(=O)OCC		active: 4.14 µM
CCOc1ccccc1CNC(=O)c1cccc(NC(=O)c2nsc3ccccc23)c1	inactive: 1.69%	
CCOC(=O)c1c(NC(C)=O)c2c3c(sc2n1Cc1cccc(Cl)c1)CCCC3	inactive: 0.363%	
Cc1ccc(C(CC(=O)Nc2ccc(C)cc2C)N2Cc3ccccc3C2=O)cc1 (configuration not stated)	inactive: -2.64%	
COc1cc(OC)c(NC(=O)c2cn(C3CCCC3)c(=O)c3c2c2ccccc2n3C)cc1Cl	inactive: -1.77%	
Cc1cc(C)c(S(=O)(=O)Nc2ccc3oc4c(c3c2)C(=O)CC(C)(C)C4)cc1C	inactive: 1.14%	
COc1ccc(-c2cnc(C)o2)cc1S(=O)(=O)Nc1ccc(F)cc1F	inactive: 0%	
CN(C)CCCNC(=O)C(=O)NCC(c1ccc2c(c1)OCO2)N1CCOCC1 (configuration not stated)	inactive: 2.95%	
Cc1nc2nc(SCC(=O)Nc3ccccc3Cl)nn2c(C)c1Cc1ccccc1	inactive: 2.05%	
COc1cc2c(cc1OC)C(COc1ccc(F)cc1)N(C(=O)c1cccc(F)c1)CC2 (configuration not stated)	inactive: 10.4%	
CN1CCN(C(=O)Cn2ncc3c4ccccc4n(Cc4ccc(F)cc4)c3c2=O)CC1	inactive: 0.0796%	
O=C(c1ccc(Br)cc1)N(Cc1cccs1)c1ccc(F)cc1	inactive: -6.96%	
CCOCCn1ccc2c(OCC(=O)Nc3cccc([N+](=O)[O-])c3)cccc2c1=O	inactive: 2.1%	
CCCOc1ccc(C2C(=O)N(C3CCCCCC3)CC(=O)N2CCC2=CCCCC2)cc1OC (configuration not stated)	inactive: -2.55%	
COc1cccc(C(=O)Nc2ccccc2OCc2cc(=O)n3ccccc3n2)c1	inactive: -12.2%	
Cc1noc(/C=C/c2cccs2)c1S(=O)(=O)N1CCC(C(=O)NCc2ccc(Cl)cc2)CC1	inactive: -2.01%	
Cc1cccn2c(=O)c(/C=C(\C#N)c3nc4ccccc4s3)c(Oc3ccc(F)cc3)nc12	inactive: -0.95%	
Cc1cc(N(CCO)Cc2ccccc2)n2nc(-c3ccc(C(C)(C)C)cc3)nc2n1	inactive: 5.45%	
COc1ccccc1CN1CCNC(=O)C1=O	inactive: 0%	
COc1ccc(N(Cc2nnc3n2CCCCC3)C(=O)Nc2cccc(C)c2)cc1Cl	inactive: 1.75%	
